Data: the supplement of paper PMC4723716
The full ranking holds about 3,600 compounds; the median of “viability index relative to DMSO control” is about 0.81, and the lowest 2% start at about 0.13. The list shows a part of the results.

These compounds were tested on Plasmodium falciparum NF54 stage V gametocytes (assay: viability index relative to DMSO control (fraction); higher = less gametocyte killing). Conditions: 1.25 µM, incubation time: 72 h.
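Note: 384-well serum-free SaLSSA: MitoTracker Red CMXRos staining with saponin lysis, high-content imaging, treated-well particle count divided by plate-mean count of DMSO wells.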

SMILES	viability index
COc1ccc(Br)cc1S(=O)(=O)N1CCCc2ccccc21	0.731
CCC(C)(C)c1ccc(OCCOCC[n+]2ccccc2)c(C(C)(C)CC)c1	0.374
CC1CC2(C)Oc3ccccc3CC2C(C)C1CNCCCN(C)C (centres undefined)	0.294
Fc1ccc(Nc2nc(NCc3ccccc3)c3ccccc3n2)cc1	0.883
O=C1NCCN1CCNS(=O)(=O)c1cc(C(F)(F)F)cc(C(F)(F)F)c1	0.867
CCOC(=O)c1c(S(=O)(=O)N2CCCC(C(=O)N3CCN(c4cccc(C)c4C)CC3)C2)c(C)n(C)c1C (centres undefined)	0.699
COc1ccc(-n2cnc3cc(NCc4nc5ccccc5n4C)ccc32)cc1	0.755
OCCNCCNCc1ccc2[nH]c3ccccc3c2c1	0.687
O=C(O)c1c[nH]c2cc(N3CCCCCC3)c(F)cc2c1=O	1.05
CCCCCCOc1ccc(NC(=O)c2cccs2)cc1	0.518
Cc1cc(=O)oc2c1ccc1oc(C(=O)c3ccccc3)c(C)c12	1
O=S(=O)(Nc1cc(Sc2nc[nH]n2)c(O)c2ccccc12)c1ccc(F)cc1	0.786
O=C(c1ccc(-n2c(SCc3ccc(Cl)cc3)nc3ccccc3c2=O)cc1)N1CCOCC1	0.975
CCNc1ncnc2sc(C(=O)NCc3csc(C)n3)c(C)c12	1.03
Cc1ccc(C(=O)C(C)[n+]2ccc(N(C)C)cc2)cc1 (centres undefined)	1.14
COc1ccc(-c2c[n+](Cc3ccc(Cl)c(Cl)c3)c3n2CCC3)cc1	0.686
COc1ccc(C2CC(c3cccs3)=NN2C(=O)CSc2nnc(CNC(=O)c3cccs3)n2-c2cc(C)ccc2C)cc1 (centres undefined)	0.686
O=C(NC1CC1)c1ccc(CSCc2ccccc2Cl)o1	0.813
Cc1cc(I)ccc1N1C(=O)C2C3c4ccccc4C(CO)(c4ccccc43)C2C1=O (centres undefined)	1.06
ClC12CC3CC(C1)CC(n1nnc4ccccc41)(C3)C2	0.918
Cc1ccc2c(C)nc(NC(=N)N)nc2c1	1.07
COc1ccc(-[n+]2cc(-c3ccc(Br)cc3)n3c2SCCC3)cc1	1.06

SMILES	viability index
Cc1nc2ccc(-c3ccc4nc(C)[nH]c4c3)cc2[nH]1	0.906
Cc1ccc(N=C2NC(=O)C(=Cc3cc(C)n(-c4cccc([N+](=O)[O-])c4)c3C)S2)cc1	0.494
CCCc1nc2ccc(NC(=O)c3ccccc3F)cc2c(=O)n1Cc1ccc(-c2ccccc2)cc1	0.735
CCC(CO)Nc1nccnc1-c1ccccc1Oc1ccccc1 (centres undefined)	0.827
OC1(c2ccc(Br)cc2)CCN(C2CCN(Cc3ccccc3)CC2)CC1	0.896
CCCn1c(-c2cccc(Br)c2)nc2ccccc21	0.94
CCOC(=O)C1=C(C)NC2=C(C(=O)CC(C)(C)C2)C1c1ccc(Cl)cc1 (centres undefined)	0.659
COc1ccc(-c2cn3c([n+]2-c2ccccc2)SCC3)cc1	1.23
Cc1ccc(C(=O)Nc2ccc(-c3nc4ccc(NC(=O)c5ccc(C)cc5)cc4[nH]3)cc2)cc1	1.39
CCCOC(=O)C1=C(C)NC2=C(C(=O)CC(c3ccc(OC)c(OC)c3)C2)C1c1cccc(Cl)c1Cl (centres undefined)	0.506
Cc1ccccc1Cn1c(=N)n(CC(O)c2ccc(Cl)c(Cl)c2)c2ccccc21 (centres undefined)	0.291
CC[n+]1c(C=C2Sc3cc(C)ccc3N2CCO)ccc2ccccc21	0.807
Cc1ccccc1Nc1sc(C(=O)c2ccc([N+](=O)[O-])cc2)c(N)c1C(=O)Nc1ccccc1	0.968
C=CC[n+]1c(C=C2C=CN(C)C=C2)sc2ccccc21	1.1
CCNc1nc(OC)nc(Oc2ccc(=O)n(-c3ccccc3)n2)n1	0.591
CN(C)CCCNc1ncnc2c1[nH]c1ccc(F)cc12	0.991
C=CCn1cc(C=NNc2nc3ccccc3[nH]2)c2ccccc21	0.49
CC(C)CN1C(=O)c2ccccc2C(C(=O)Nc2ccc(CN3CCC(C)CC3)cc2)C1c1cccs1 (centres undefined)	0.321
CCC(CO)NCC(O)Cn1c2ccc(Br)cc2c2cc(Br)ccc21 (centres undefined)	0.564
CC[n+]1c(C=C2C=Cc3cc(C)ccc3N2C)ccc2cc(C)ccc21	0.555
Cc1cccc(Nc2c3c(c(C#N)c4nc5ccccc5n24)CCC3)c1	0.71
O=C(Nc1ccc(-c2nc3ccccc3[nH]2)cc1)c1ccc(Cl)c(Cl)c1	1.03
